Data taken from PubChem BioAssay AID504832 (National Center for Advancing Translational Sciences (NCATS), 2011).
The campaign covered roughly 310,000 compounds. About 18,000 (5.8%) were called active. This list was built around the results that the source calls inconclusive (neither active nor inactive); the mix of calls is not that of the screen. Calls follow the shape of the dose curve; as a rule, active = well fitted inhibition curve with a large enough effect; inconclusive = small, poorly fitted or top-dose-only effect, or another doubt; inactive = no such curve, though single readings can be large or run the other way. Potencies of inconclusive entries are left out as doubtful fits.

experiment: Primary qHTS for delayed death inhibitors of the malarial parasite plastid, 48 hour incubation; settings: P. falciparum luciferase growth in erythrocytes; series mostly up to 28.7 µM; activity change, negative = inhibition: at the top concentration
How it was run: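 Compounds are pin-transferred into medium, infected erythrocytes (2% hematocrit, 0.1% parasitemia final) are added, and plates sit one parasite generation at 37 C in 5% CO2. Detection reagent is then added and luminescence measured.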
% is scaled to controls: 0 for no effect and ±100 for the full control effect; potency is read from the fitted curve at half-maximal effect; tags tell the direction and shape of the fitted curve.

Structure (SMILES)	activity change, negative = inhibition	Potency
CCc1nnc(N2C(=O)c3ccc(Oc4ccc([N+](=O)[O-])cc4)cc3C2=O)s1	inactive: 10.3%	
CN(C)CCN1C(=O)C(=O)/C(=C(/O)c2ccc(S(=O)(=O)N3CCOCC3)cc2)C1c1ccc(Br)cc1 (stereo not drawn)	inactive: 5.39%	
COc1ccc(NC(c2ccccc2F)P(=O)(Oc2ccccc2)Oc2ccccc2)cc1 (stereo not drawn)		inconclusive [inhibitor, single point]
O=C(CN1CCSCC1)N1CCc2[nH]c3ccc(Br)cc3c2C1		inconclusive [inhibitor, single point]
Cc1ccc(-n2c(C)cc(/C=N/NC(=O)c3ccncc3)c2C)c(C)c1		active: 2.33 µM
CCC1OC(=O)C[C@@H](O)[C@H](C)[C@@H](OC2OC(C)CC(N(C)C)C2O)[C@@H](CC=O)C[C@@H](C)C(=O)/C=C/[C@]2(C)OC2C1C (stereo partly drawn)		active: 13.5 µM
CCOC(=O)CN(C(=O)CSc1nnc(CNc2ccc(F)cc2)n1CC)c1ccc(F)cc1		inconclusive [inhibitor, partial curve, poor fit]
Cc1cccc(C)c1NC(=O)CN(C)C(=O)c1cc(S(=O)(=O)N(C)C)ccc1N1CCCC1		inconclusive [inhibitor, partial curve, poor fit]
CCOc1ccc(Nc2nc(N)c([N+](=O)[O-])c(N3CCOCC3)n2)cc1		inconclusive [inhibitor, partial curve]
COc1ccccc1C(=O)C1CCCN(C(=O)c2cnn(C(C)C)c2)C1 (stereo not drawn)	inactive: 1.47%	
CCOc1ccccc1-n1c(N)c(C(N)=O)sc1=S	inactive: 28.1%	
CCOC(=O)Cc1csc(NC(=O)CCS(=O)(=O)Cc2ccccc2)n1	inactive: -0.251%	
Cc1cc(C)n2nc3nc(N4CCCCC4)nc(-c4ccco4)c3c2n1		inconclusive [inhibitor, single point]
CC(C(=O)N=c1sc2ccccc2n1C)N1C(=O)C2CC=CCC2C1=O (stereo not drawn)		inconclusive [inhibitor, partial curve, poor fit]
CCNc1nc(NCC)n2c(SCC(=O)Nc3cc(Cl)ccc3OC)nnc2n1		inconclusive [inhibitor, full curve, poor fit]
NNC(=O)c1cn2ccccc2n1		inconclusive [inhibitor, full curve, poor fit]
c1ccc(-c2nc(-n3nc4ccccc4n3)nc3ccccc23)cc1	inactive: 13%	
CCOc1ccccc1-n1c(O)c(C=NCCCn2ccnc2)c(=O)[nH]c1=O	inactive: 41.9%	
Cc1ccc2nc3ccc(N4CCCCCCC4)nn3c(=O)c2c1	inactive: 40.1%	
CCOc1ccc(NC2=C(Cl)C(=O)N(Cc3ccccc3)C2=O)cc1		inconclusive [inhibitor, partial curve, poor fit]
Cc1c(NC(=O)Cn2ccc([N+](=O)[O-])n2)c(=O)n(-c2ccccc2)n1C		inconclusive [inhibitor, partial curve, poor fit]
COc1ccc(C(=O)CN2C3=NCCCN3c3ccccc32)cc1OC	inactive: 4.99%	
O=C(CN1C(=O)COc2ccccc21)NC1CCCC1	inactive: 0.837%	

Structure (SMILES)	activity change, negative = inhibition	Potency
c1ccc(C2c3[nH]c4ccccc4c3CCN2Cc2cccn2-c2ccccn2)nc1 (stereo not drawn)		inconclusive [inhibitor, single point]
CCn1c(Cc2ccc(OC)cc2)nnc1SCC(=O)Nc1ccc(N2CCOCC2)cc1		inconclusive [inhibitor, full curve, poor fit]
COc1ccc(C(=O)N2CCCN(C)CC2)cc1S(=O)(=O)N(C)Cc1ccccc1		inconclusive [inhibitor, single point]
Cc1ccc(C)c(NC(=O)COc2cccc3c2CCN(Cc2ccccc2C)C3=O)c1		inconclusive [inhibitor, single point]
Cc1ccc(C(O)P(=O)(OCc2ccccc2)c2ccc(N(C)C)cc2)cc1 (stereo not drawn)	inactive: -17.9%	
CCC(C)NC(=O)c1ccccc1NC(=O)C(C)N(c1ccccc1)S(C)(=O)=O (stereo not drawn)		inconclusive [inhibitor, single point]
Oc1ccc(-n2nnnc2SCc2ccccc2Br)cc1		inconclusive [inhibitor, single point]
O=C(NCC1(c2ccccc2)CCCC1)C1(c2ccccc2)CCCC1		inconclusive [inhibitor, partial curve, poor fit]
CCCCC(=O)Nc1cccc(-c2csc(-c3ccccc3)n2)c1		inconclusive [inhibitor, single point]
Cc1ccnc(NC(=O)c2cccc(S(=O)(=O)NCc3ccccc3)c2)c1		inconclusive [inhibitor, single point]
CSCCC1NC(=O)N(CC(=O)N2N=C(c3ccc(Cl)cc3)CC2c2ccco2)C1=O (stereo not drawn)	inactive: 21%	
CCOC(CN1CCN(CC(C)C(=O)c2ccccc2)CC1)c1ccccc1 (stereo not drawn)	inactive: -7.35%	
COCCN(Cc1ccccc1)C(=O)C1CCN(S(=O)(=O)c2ccc3c(c2)OCCO3)CC1		inconclusive [inhibitor, single point]
COc1ccc(C)cc1S(=O)(=O)N1c2ccc(C)cc2C2CN(C)CCC21 (stereo not drawn)		inconclusive [inhibitor, partial curve]
CCC(C)n1c(SCC(=O)NC2CCCC2)nc2ccccc2c1=O (stereo not drawn)		active: 11.7 µM
CSCCC(NC(=O)c1ccccc1Cl)C(=O)N1CC(C)OC(C)C1 (stereo not drawn)		inconclusive [inhibitor, partial curve, poor fit]
CC(C)N(Cc1ccccc1)S(=O)(=O)c1ccc(Cl)nc1		inconclusive [inhibitor, single point]
S=C(NC1CC1)SCc1ccco1		inconclusive [inhibitor, single point]
CC(=O)Nc1ccc(S(=O)(=O)NCC2CCC(C(=O)NC(C)c3ccccc3)CC2)cc1 (stereo not drawn)		inconclusive [inhibitor, partial curve, poor fit]
COCCN1C(=O)Cc2c1nc(N)c1c(N)nc(N3CCN(c4ccc(F)cc4)CC3)c(C#N)c21		active: 7.38 µM
Cc1ccc(C(=O)CSc2nnnn2-c2ccccc2)o1	inactive: 123%	
CC(=O)c1cc(C#N)c(Oc2cccc(C(F)(F)F)c2)nc1C		inconclusive [inhibitor, single point]
COc1ccccc1NC(=O)c1sc2nc(Cc3ccccc3)cc(C(F)(F)F)c2c1N		inconclusive [inhibitor, single point]

Structure (SMILES)	activity change, negative = inhibition	Potency
COC(=O)c1ccc(NC(=S)NN2CCCCC2c2cccnc2)cc1 (stereo not drawn)	inactive: 0.0445%	
Cc1ccccc1-n1c(C)nnc1SCC(=O)NC1CCCc2ccccc21 (stereo not drawn)		inconclusive [inhibitor, single point]
Cc1cc(C(=O)N2CCCC(N3CCN(Cc4ccc5c(c4)OCO5)CC3)C2)n[nH]1 (stereo not drawn)	inactive: 11.8%	
CC/C(=C\C(=O)c1cccnc1)Nc1ccc(C)c(C)c1		inconclusive [inhibitor, single point]
NS(=O)(=O)c1ccc(CNC(=O)c2cc(-c3ccccn3)nc3ccc(Cl)cc23)cc1		inconclusive [inhibitor, single point]
Cc1c(C(=O)N/N=C/C(C)C)[nH]c2c([N+](=O)[O-])cccc12		inconclusive [inhibitor, single point]
O=C1CC(c2ccccc2)CC(O)=C1C=NC1CCCCCC1 (stereo not drawn)		inconclusive [inhibitor, full curve, poor fit]
Cc1cc(N2CCC(C)CC2)nc(SCC(=O)c2ccccc2)n1		inconclusive [inhibitor, single point]
CCc1cc(C(=O)c2ccc(OC)cc2)c(NC(=O)CN2CCN(C)CC2)s1		active: 5.22 µM
CCOC(=O)c1c(SC)n(-c2ccccc2)c(=S)n(-c2ccccc2)c1=O		inconclusive [inhibitor, single point]
Cc1cc(C(=O)Nc2ccc(F)c(Cl)c2)on1		inconclusive [inhibitor, partial curve, poor fit]
Cc1coc2c(C)c3oc(=O)c(CCC(=O)NCCCN4CCOCC4)c(C)c3cc12		inconclusive [inhibitor, single point]
COC(C[C@H]1O[C@H]1[C@@H](O)[C@@H](C)OCc1ccccc1)OC	inactive: 39.6%	
COC(=O)CCCC1=CC2=CC(=O)C(C)(OC(=O)c3cccs3)C(=O)C2=CN1Cc1ccco1 (stereo not drawn)		inconclusive [inhibitor, single point]
Cc1c(Cl)cccc1Nc1nc(N)nc(CN2CCc3ccccc3C2)n1		active: 9.28 µM
O=C(O)COc1ccccc1/C=N/NC(=O)CSc1nc2ccccc2n1Cc1ccccc1Cl		inconclusive [inhibitor, single point]
CCOc1cc(/C=N\NC(=O)CN2CCOCC2)ccc1OCc1ccc(F)cc1		active: 9.28 µM
COC(=O)c1ccc(OC)c(OC2CCCC2)c1		inconclusive [inhibitor, single point]
CCOC(=O)C1(Cc2cccc(OC)c2)CCCN(C(=O)CCc2cccnc2)C1 (stereo not drawn)		inconclusive [inhibitor, single point]
Cc1ccccc1CS(=O)(=O)CCC(=O)NCc1ccccn1	inactive: 18%	
COc1ccc2c(c1)c(C(=O)N/N=C/c1ccccc1Cl)c(C)n2C		inconclusive [inhibitor, single point]
COc1ccc(OC)c(C2C=C(C34CC5CC(CC(C5)C3)C4)NC(=S)N2)c1 (stereo not drawn)		active: 8.28 µM
